In article PMC4336329 (PLoS ONE, 2015):
Screen size: about 310,000 compounds; about 2,200 (0.71%) showed an effect of 50% or more. The effect is printed as a negative number. This is one part of the list.

These molecules were tested against human ether-à-go-go-related gene (hERG) potassium channel (human, UniProt Q12809) (assay: primary screen, population patch clamp on CHO cells stably expressing hERG).
Chain of human ether-à-go-go-related gene (hERG) potassium channel (Q12809 whole entry, looked up): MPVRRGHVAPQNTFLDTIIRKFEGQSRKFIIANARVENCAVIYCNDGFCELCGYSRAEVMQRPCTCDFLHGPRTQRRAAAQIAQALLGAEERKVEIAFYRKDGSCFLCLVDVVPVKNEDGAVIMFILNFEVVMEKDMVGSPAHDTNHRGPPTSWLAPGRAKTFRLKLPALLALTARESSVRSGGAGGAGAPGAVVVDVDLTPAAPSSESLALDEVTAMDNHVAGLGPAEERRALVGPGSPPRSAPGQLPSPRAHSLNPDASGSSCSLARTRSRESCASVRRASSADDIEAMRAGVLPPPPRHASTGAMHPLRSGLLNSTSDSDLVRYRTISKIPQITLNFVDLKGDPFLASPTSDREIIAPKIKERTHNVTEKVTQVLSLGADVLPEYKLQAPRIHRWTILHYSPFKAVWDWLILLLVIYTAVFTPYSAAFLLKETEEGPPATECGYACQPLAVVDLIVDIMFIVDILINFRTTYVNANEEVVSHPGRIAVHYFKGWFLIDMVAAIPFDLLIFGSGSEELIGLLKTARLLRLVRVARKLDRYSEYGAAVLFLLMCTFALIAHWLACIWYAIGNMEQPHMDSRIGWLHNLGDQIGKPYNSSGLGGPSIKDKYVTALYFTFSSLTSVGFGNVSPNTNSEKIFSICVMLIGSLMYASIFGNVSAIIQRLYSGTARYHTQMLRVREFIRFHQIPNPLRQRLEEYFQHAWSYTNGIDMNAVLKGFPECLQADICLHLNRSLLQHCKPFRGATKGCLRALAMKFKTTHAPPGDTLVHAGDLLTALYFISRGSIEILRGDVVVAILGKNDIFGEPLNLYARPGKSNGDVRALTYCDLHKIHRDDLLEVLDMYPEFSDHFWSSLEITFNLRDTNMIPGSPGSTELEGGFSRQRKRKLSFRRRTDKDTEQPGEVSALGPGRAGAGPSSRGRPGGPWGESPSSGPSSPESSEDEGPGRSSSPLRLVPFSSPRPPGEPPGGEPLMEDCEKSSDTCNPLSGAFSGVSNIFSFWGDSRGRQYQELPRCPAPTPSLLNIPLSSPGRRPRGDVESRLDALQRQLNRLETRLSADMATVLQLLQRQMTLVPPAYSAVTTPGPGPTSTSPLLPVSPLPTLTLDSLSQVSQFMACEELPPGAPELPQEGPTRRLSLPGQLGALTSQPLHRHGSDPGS

First: COCCNC(=O)/C(C#N)=C/c1c(N2CCN(c3ccccc3)CC2)nc2ccccn2c1=O
Second: COc1cc(/C=C(/C#N)C(=O)NCCc2c[nH]c3ccccc23)ccc1OCc1ccccc1F
The “hERG current change (%, negative = inhibition) at 1uM” value of the first is lower: 4.77% for the first, 14.7% for the second.

First: NC(=O)c1c(-c2cccs2)csc1N
Second: NC(=O)N/N=C/c1cn(-c2ccccc2)nc1-c1cccs1
The “hERG current change (%, negative = inhibition) at 1uM” value of the first is higher: 14.8% for the first, 0.318% for the second.

Compared with `Cc1onc(-c2c(F)cccc2Cl)c1C(=O)ONC(=O)c1ccccc1`, `Cc1cccc(C)c1NC(=O)CNC(=O)c1c(-c2ccccc2)noc1C` is lower in “hERG current change (%, negative = inhibition) at 1uM” value: 15.1% for the first, 12.8% for the second.

Going from `CCOC(=O)c1c(NC(=O)COC(=O)c2cc(OC)c(OC)cc2[N+](=O)[O-])sc(C)c1C` to `COc1cc(NC(=O)c2cccs2)c(C(=O)OCC(=O)c2cc(C)n(-c3ccccc3)c2C)cc1OC`, the “hERG current change (%, negative = inhibition) at 1uM” value rises from -9.91% to 8.11%.

First: CCN(CC)c1nc(N)c2c(N)nc(OC)cc2c1C#N
Second: CCn1cnc2cc(NCc3cccc(OC)c3O)ccc21
The “hERG current change (%, negative = inhibition) at 1uM” value of the first is lower: 2.34% for the first, 8.76% for the second.

Going from `O=C(O)CCc1ccc(-c2ccc(F)cc2)n1Cc1ccco1` to `CSc1cccc(CN2CCCC(CNC(=O)c3ccc(F)cc3)C2)c1` (stereo not shown), the “hERG current change (%, negative = inhibition) at 1uM” value falls from 8.19% to -19.1%.

First: Nc1nonc1-n1nnc(C(=O)N/N=C/c2cccc(Cl)c2)c1CN1CCCCCC1
Second: O=C(NCc1nnc(SCC(=O)N2CCCC2)o1)c1c(F)cccc1Cl
The “hERG current change (%, negative = inhibition) at 1uM” value of the first is higher: 18.9% for the first, 10.4% for the second.

Compared with `O=S(=O)(Nc1nccs1)c1ccc(NS(=O)(=O)c2cccs2)cc1`, `COc1ccc(C(=O)NC(=S)Nc2ccc(S(N)(=O)=O)cc2)cc1` is lower in “hERG current change (%, negative = inhibition) at 1uM” value: 16.6% for the first, 10.5% for the second.

Going from `O=C(Nc1cc(Cl)ccc1-n1cncn1)c1cn2ccccc2n1` to `O=C(CSc1cccc[n+]1[O-])Nc1ccc([N+](=O)[O-])cc1Cl`, the “hERG current change (%, negative = inhibition) at 1uM” value rises from 9.61% to 21.8%.

First: CSc1ncc(Cl)c(C(=O)NCc2ccc3c(c2)OCO3)n1
Second: Cc1ccc(S(=O)(=O)Nc2cc3c(cc2C#N)OCO3)cc1C(N)=O
The “hERG current change (%, negative = inhibition) at 1uM” value of the first is lower: 5.83% for the first, 11.4% for the second.

Compared with `Cc1cccc(NC(=O)CN(C)S(=O)(=O)c2cnc[nH]2)c1`, `COc1ccc(C)cc1S(=O)(=O)N(CC(=O)Nc1cccc([N+](=O)[O-])c1)c1ccc(C)cc1` is higher in “hERG current change (%, negative = inhibition) at 1uM” value: 12.9% for the first, 24.6% for the second.

First: CCOCCCNC(=O)C1CCN(S(=O)(=O)c2c(C)noc2/C=C\c2ccc(OC)cc2)CC1
Second: CCCCNC(=O)C1CCN(S(=O)(=O)N2CCOCC2)CC1
The “hERG current change (%, negative = inhibition) at 1uM” value of the first is lower: 8.17% for the first, 9.05% for the second.

Going from `CC(C)Cc1nnc(NS(C)(=O)=O)s1` to `CCCCCN(C(=O)NC(=O)Nc1nncs1)S(C)(=O)=O`, the “hERG current change (%, negative = inhibition) at 1uM” value falls from 20% to 14.6%.

Compared with `O=S(=O)(NC1CC1)c1ccc(S(=O)(=O)N2CCCC(c3nc(-c4cccnc4)no3)C2)cc1` (stereo not shown), `c1ccc(Oc2nc(-c3cccnc3)nc3ccccc23)cc1` is higher in “hERG current change (%, negative = inhibition) at 1uM” value: -6.69% for the first, 13.3% for the second.

First: CC1(C)Cc2c(sc3nc(C4CC4)n(N)c(=O)c23)CO1
Second: Cn1c(=O)c2c(nc(NN=C3CCCCC3)n2C)n(C)c1=O
The “hERG current change (%, negative = inhibition) at 1uM” value of the first is lower: 13.6% for the first, 15.6% for the second.

First: CCCn1c(SCC(=O)N2CCCc3ccccc32)nnc1-c1ccccn1
Second: Cn1c(SCC(=O)NC2CCCCC2)nnc1-c1cccnc1
The “hERG current change (%, negative = inhibition) at 1uM” value of the first is lower: 2.64% for the first, 7.51% for the second.

Compared with `Cc1cc(C)cc(NC(=O)CCN2C(=O)c3ccccc3S2(=O)=O)c1`, `CCCCn1c(=O)[nH]c(=O)c2c1nc(CN1C(=O)c3ccccc3S1(=O)=O)n2CCC` is lower in “hERG current change (%, negative = inhibition) at 1uM” value: 10.5% for the first, -7.61% for the second.

First: Cn1c(C(=O)OC(C(=O)NC2CCCCC2)c2cccnc2)cc2sccc21 (stereo not shown)
Second: O=C(CSc1nnnn1-c1ccc(F)cc1)NC1CCCCC1
The “hERG current change (%, negative = inhibition) at 1uM” value of the first is lower: 7.83% for the first, 8.15% for the second.

Going from `CC(C)NC(=O)NC(=O)CSc1nnc(COc2ccccc2F)n1C(C)C1CC2CCC1C2` (stereo not shown) to `CC(NC(=O)c1ccc(OC2CCN(S(=O)(=O)N(C)C)CC2)cc1)C1CC1` (stereo not shown), the “hERG current change (%, negative = inhibition) at 1uM” value rises from 2.19% to 8.82%.

First: CN(C)C(=C(C#N)C#N)N1CCN(c2ccc(Cl)cc2)CC1
Second: O=C(NCC(=O)N1CCN(c2ncc(C(F)(F)F)cc2Cl)CC1)c1ccc(Br)o1
The “hERG current change (%, negative = inhibition) at 1uM” value of the first is lower: -16% for the first, -7.25% for the second.

Compared with `Cc1cc(Cl)c2oc(C(=O)N(C)C(C)c3ccccn3)c(C)c2c1` (stereo not shown), `Cc1cccc(C)c1N=C1SC(CC(=O)Nc2c(C)cccc2C)C(=O)N1CCc1ccccn1` (stereo not shown) is higher in “hERG current change (%, negative = inhibition) at 1uM” value: 4.49% for the first, 11.5% for the second.

Going from `COC(=O)c1ccc(NC(=O)CSc2nncc3ccc(OC)c(OC)c23)cc1` to `COc1ccc(OC)c(NC(=O)c2ccc(NC(C)=O)cc2)c1`, the “hERG current change (%, negative = inhibition) at 1uM” value falls from 1.77% to 1.26%.

First: CSc1cccc(CNC(=O)C2CCC(=O)N(Cc3cccc(C(F)(F)F)c3)C2)c1 (stereo not shown)
Second: Cc1ccc(C)c(OCC(O)CN2CCC(Cc3ccccc3)CC2)c1.Cl (stereo not shown)
The “hERG current change (%, negative = inhibition) at 1uM” value of the first is higher: 12.3% for the first, -43.1% for the second.

First: CC(=O)Nc1ccc(S(=O)(=O)C(C#N)c2nc3ccccc3nc2NCCN2CCOCC2)cc1 (stereo not shown)
Second: Cc1cccc(S(=O)(=O)Nc2nc3ccccc3nc2Nc2cccc(C(=O)O)c2)c1
The “hERG current change (%, negative = inhibition) at 1uM” value of the first is lower: 6.76% for the first, 11.2% for the second.

Going from `Cc1ccccc1NC(=O)CSCC(=O)Nc1ccccc1C` to `Cc1nn(C(=O)CCC(=O)NCCc2ccccc2)c2ccccc12`, the “hERG current change (%, negative = inhibition) at 1uM” value rises from 5.46% to 19.9%.

First: O=C(c1cccnc1)N1CCN(C(=O)c2ccccc2F)CC1
Second: COc1ccccc1NC(=O)C1CCN(C(=O)c2ccc(C(C)(C)C)cc2)CC1
The “hERG current change (%, negative = inhibition) at 1uM” value of the first is lower: -11.4% for the first, 6.81% for the second.

Compared with `COc1ccccc1OCCCn1c(C)c(C#N)c2ccccc21`, `N#Cc1ccccc1Cn1cc(/C=C/[N+](=O)[O-])c2ccccc21` is lower in “hERG current change (%, negative = inhibition) at 1uM” value: 15.1% for the first, 7.33% for the second.

Going from `Cc1cc2c(cc1S(=O)(=O)N1CCOCC1)NC(=O)CO2` to `O=C1c2ccccc2S(=O)(=O)c2cc(N3CCC4(CC3)OCCO4)ccc21`, the “hERG current change (%, negative = inhibition) at 1uM” value falls from 15% to 6.65%.

Compared with `COC(=O)C1=C(c2cccc(Cl)c2)C[C@@H]2CC[C@H]1N2C(=O)N1CCCC1`, `O=c1c2ccccc2[nH]c(=S)n1CCN1CCCCC1` is lower in “hERG current change (%, negative = inhibition) at 1uM” value: 9.41% for the first, 6.61% for the second.

Going from `Cc1ccc(N2C(=O)C3C(C2=O)C(C(=O)c2ccc(Cl)cc2)N2CCCC32)cc1` (stereo not shown) to `COc1cc(/C=N/NC(=O)c2ccc(CN(C)S(=O)(=O)c3ccc(C)cc3)cc2)ccc1O`, the “hERG current change (%, negative = inhibition) at 1uM” value falls from 14.3% to 12.6%.

First: Clc1nc2sccn2c1/C=N/n1cnc2ccccc21
Second: O=C(Nc1ccccc1)c1ccc2snnc2c1
The “hERG current change (%, negative = inhibition) at 1uM” value of the first is lower: 9.25% for the first, 13.8% for the second.

Compared with `CCOC(=O)N1CCN(C(=S)NC2CCCC2)CC1`, `Cc1ccc(N(CC(=O)NC2CCCCC2)S(=O)(=O)c2c(C)nn(C)c2C)cc1` is higher in “hERG current change (%, negative = inhibition) at 1uM” value: 8.85% for the first, 13.5% for the second.

Compared with `CCCC(=O)Nc1nc(CC(=O)OCC)cs1`, `CCCc1cc(=O)[nH]c2nnc(SCC(=O)Nc3ccc(C(C)=O)cc3)n12` is higher in “hERG current change (%, negative = inhibition) at 1uM” value: 0.595% for the first, 3.67% for the second.

First: N#CCSc1ncnc2c1cnn2CCO
Second: Cc1nc(SCCC(=O)O)c2ccccc2n1
The “hERG current change (%, negative = inhibition) at 1uM” value of the first is higher: 18.2% for the first, 9.28% for the second.

First: Cc1ccc(C(C(=O)NCC2CCCO2)N(C(=O)c2snc(C(N)=O)c2N)c2ccc(F)cc2)o1 (stereo not shown)
Second: COc1ccc(C2=NOC(C(=O)NCc3cccs3)C2)cc1 (stereo not shown)
The “hERG current change (%, negative = inhibition) at 1uM” value of the first is lower: 12.7% for the first, 21.3% for the second.

Compared with `CCc1ccc(OCC(=O)OCC(=O)c2c(N)n(C)c(=O)n(C)c2=O)cc1`, `CCOC(=O)C1CCCN(c2c(Nc3ccc(OCC)cc3)c(=O)c2=O)C1` (stereo not shown) is lower in “hERG current change (%, negative = inhibition) at 1uM” value: 7.79% for the first, 5.74% for the second.

Going from `CC(=O)Nc1ccc(NC(=O)C(C)O/N=C/c2cccc([N+](=O)[O-])c2)cc1` (stereo not shown) to `O=C(Cc1ccccc1)Nc1ccc(C(=O)Nc2ccccc2C(=O)O)cc1`, the “hERG current change (%, negative = inhibition) at 1uM” value rises from -8.51% to 10.4%.

First: Cc1onc(-c2c(F)cccc2Cl)c1-c1nnc(-c2cccc3ccccc23)o1
Second: N#CC(CO)(Cc1ccc(OC(F)F)cc1)c1nc2ccccc2[nH]1 (stereo not shown)
The “hERG current change (%, negative = inhibition) at 1uM” value of the first is higher: 8.69% for the first, -12.6% for the second.

Compared with `C/C(CC(C)C)=N/Nc1ccc([N+](=O)[O-])cc1[N+](=O)[O-]`, `CCn1c(C)nc2cc(S(=O)(=O)C(F)F)ccc21` is lower in “hERG current change (%, negative = inhibition) at 1uM” value: 9.93% for the first, -10.2% for the second.

First: CCCc1cc(=O)n2[nH]c(SCc3ccc(Cl)cc3)nc2n1
Second: CCN1/C(=C/c2ccc3cc(C)ccc3[n+]2CC)Sc2ccccc21.[I-]
The “hERG current change (%, negative = inhibition) at 1uM” value of the first is higher: 15.5% for the first, -100% for the second.

Going from `COc1ccccc1CNC(=O)Cn1cnnn1` to `Cc1ccccc1CNCCCSc1ncccn1.Cl`, the “hERG current change (%, negative = inhibition) at 1uM” value rises from 12.8% to 24.7%.

Going from `O=C1C(Cl)=C(NC(=O)c2ccccc2)C(=O)C(Cl)=C1NC(=O)c1ccccc1` to `COc1ccc(C(=O)c2ccccc2)c(OCC(=O)N(C)C)c1`, the “hERG current change (%, negative = inhibition) at 1uM” value falls from 11.1% to 9.13%.

Going from `CCNC(=S)NCCN1CCCCC1.Cl` to `CS(=O)(=O)N(CC(=O)Nc1ccc(Br)cc1F)C1CCCCC1`, the “hERG current change (%, negative = inhibition) at 1uM” value falls from 13.2% to 7.23%.

Compared with `C=CCn1c(Oc2cccc(C)c2)nc2c1c(=O)n(C)c(=O)n2C`, `COC(=O)C1C(=O)C2=C(CC1C)Nc1ccccc1NC2c1cccs1` (stereo not shown) is lower in “hERG current change (%, negative = inhibition) at 1uM” value: 10.4% for the first, 6.57% for the second.
